The structures appear in SMILES notation. About 540 (0.36%) of roughly 150,000 compounds showed an effect of 50% or more. This is one part of the list.

This assay deals with Plasmodium falciparum. The experiment in a line: Primary screen in NF54 nanoGlo assay, in single point, at 2uM, 72h; a lower Z score goes with more inhibition. Format: functional, Erythrocyte. The conditions noted are these: timepoint 72 hour.
The term % Inhibition denotes the change of the read-out against control, counted positive when it falls. `Cc1cc(N2C[C@H]3CC[C@@H](C2)[C@H]3N(C)C)nc(Nc2cccc(O)c2)n1`: the “% Inhibition” value worked out at 77% and the Z score is -8.01.
`CCn1ccc2c(cc(C(=O)Nc3cc(Cl)ccc3OC)n2C)c1=O`: the “% Inhibition” value is listed as -3% and the Z score is on record as 0.46.
As to `Cc1nn(CC(=O)N2CCCC2)c(=O)c2nc(-c3ccccc3)sc12`, the “% Inhibition” value was -9% and the Z score was 1.26.
Take `O=C(Nc1c(C(=O)O)sc2ccccc12)c1ccccn1`: the “% Inhibition” value is reported as -10% and the Z score was 1.61.
Regarding `O=C(Nc1ccc2c(c1)OCO2)Nc1ccc2c(c1)OCO2`, the “% Inhibition” value is -1% and the Z score amounted to 0.13.
`O=C(COc1ccccc1Cl)N(Cc1ccco1)c1cccc(Cl)c1`: the “% Inhibition” value was -7% and the Z score is listed as 0.89.
For the molecule `CCCC(O)(CCC)CNC(=O)Nc1cc(C)on1`, the “% Inhibition” value is -5% and the Z score came out at 0.54.
`CC(C)Nc1ccc(C(=O)N2CCC[C@@H]2CO)cn1`: the “% Inhibition” value is -10% and the Z score was 1.74.
`c1cc(-c2nc3c(c(N4CCC[C@H](N5CCCC5)C4)n2)CCC3)ccn1`: the “% Inhibition” value was -7% and the Z score worked out at 0.85.
The like results for `COCCCn1cnc2c(-c3ccccc3)cn(CC(=O)Nc3cc(Cl)ccc3OC)c2c1=O` were, in that order, -5% and 0.73.
Regarding `Cc1cc(C)c(C(=O)NCC2=CCCN([C@@H]3C=CCCC3)C2)c(C)c1`, the “% Inhibition” value is -20% and the Z score came to 2.65.
With `COc1cc(C(=O)NC(C)(C)c2c(C)noc2C)on1`, the “% Inhibition” value is listed as 34% and the Z score is reported as -0.66.
As for `COc1cc2c(cc1OC)[C@H](CNC(=O)c1ccc(Cl)cc1)N(Cc1cccc(C)c1)CC2`, the “% Inhibition” value stood at 16% and the Z score is -2.25.
`Cc1c(-c2cccc(C(=O)NCC3(C)COC3)c2)cnn1C(F)F`: the “% Inhibition” value is on record as -2% and the Z score was determined as 0.31.
As to `CCOc1ccc(CNC(=O)CN(C)c2nc3c(s2)c(C)nn3-c2ccccc2)cc1OCC`, the “% Inhibition” value was 7% and the Z score is -0.9.
For `Cc1cccc(CN[C@H]2CC(C)(C)Cc3c2cnn3-c2ccccc2C)n1`, the “% Inhibition” value was -7% and the Z score stood at 1.01.
In the case of `Cc1ccc(NC(=O)Cn2cc(S(=O)(=O)N3CCOCC3)ccc2=O)cc1C`, the “% Inhibition” value was -7% and the Z score was 1.47.
For `COCCc1nc([C@@H](C)Cn2cccn2)n(C2CCN(C)CC2)n1`, the “% Inhibition” value turned out to be 8% and the Z score was -1.06.
The like results for `C[C@@H](CN)Oc1ccc(Br)cc1` were, in that order, 4% and -0.59.
On to `COc1ccc(C(=O)NC2CCC(Nc3nc(C)nc4c3cnn4-c3ccc(OC)cc3)CC2)cc1` (configuration not stated), for which the “% Inhibition” value is listed as -43% and the Z score is given as 4.6.
`O=C(c1nc2ccccc2s1)N1CC(Oc2cccc(C(F)(F)F)n2)C1`: the “% Inhibition” value is reported as -20% and the Z score came out at 3.81.
The like results for `C[C@H](NC(=O)Nc1ccccc1)C(=O)N1CCCCC1` were, in that order, 4% and -0.49.
For `Cc1nc(C(=O)Nc2ccncc2)c(-c2ccccc2)s1`, the “% Inhibition” value is -4% and the Z score is recorded as 0.57.
`O=C(CN1CCC[C@H]1c1nc2ccccc2s1)N1CCCCC1`: the “% Inhibition” value is listed as -12% and the Z score came to 2.17.
As for `CNS(=O)(=O)CCNc1ncc2ccccc2n1`, the “% Inhibition” value is recorded as -4% and the Z score is 0.7.
On to `CC(CCC1CCCO1)NC(=O)c1c[nH]c(=O)c(Br)c1` (configuration not stated), for which the “% Inhibition” value is recorded as -2% and the Z score worked out at 0.18.
The like results for `O=C1CNC(=O)N1[C@H]1CCO[C@@H]1c1ccccc1` were, in that order, 3% and -0.63.
`CCOc1ccc(-c2nc(CN[C@H]3CCOC34CCCC4)co2)cc1`: the “% Inhibition” value is reported as -14% and the Z score stood at 1.78.
Regarding `O=C(CCCc1cn[nH]c1)NC(c1ccccc1)[C@H]1C[C@@H](O)C1` (some centres not stated), the “% Inhibition” value is on record as -11% and the Z score stood at 1.67.
As to `Cn1cc(CNCCCOc2cccnc2)c(-c2ccc3c(c2)OCCO3)n1`, the “% Inhibition” value is recorded as 3% and the Z score is given as -0.65.
The like results for `CC(C)=CCN1C(=O)[C@@H]2CC[C@H]1CN(C(=O)Cc1cccc(F)c1F)C2` were, in that order, -3% and 0.51.
With `CC(NC(=O)c1n[nH]c(=O)c2ccccc12)C1CCCO1` (configuration not stated), the “% Inhibition” value is on record as -13% and the Z score turned out to be 2.37.
With `CCOC(=O)C1CCN(C(=O)c2coc(CN(Cc3ccc4c(c3)OCO4)Cc3ccccc3Cl)n2)CC1`, the “% Inhibition” value is given as -11% and the Z score amounted to 1.98.
As to `O=C(Cn1nc(-c2ccc(OC(F)F)cc2)c(Cl)c1-c1ccc(OC(F)F)cc1)NC1CCCCC1`, the “% Inhibition” value is listed as 29% and the Z score is -3.27.
The like results for `Nc1nccc(C2CCN(C(=O)Nc3cc(F)c4c(c3)NC(=O)CO4)CC2)n1` were, in that order, -9% and 1.45.
On to `O=C(NC1CCCC1)c1cn(CCc2ccccc2)nn1`, for which the “% Inhibition” value came out at 3% and the Z score is recorded as -0.5.
Take `Cc1noc(C)c1CN(C)C(=O)C1CC(c2ccccc2)C1` (configuration not stated): the “% Inhibition” value amounted to 0% and the Z score worked out at 0.02.
On to `Cc1noc(C)c1S(=O)(=O)N[C@H]1CCOC[C@@H]1Oc1cccc(F)c1`, for which the “% Inhibition” value was -1% and the Z score worked out at 0.15.
The like results for `COCCN(Cc1cccs1)C[C@H](O)COCC(C)C` were, in that order, -11% and 1.81.
For the molecule `Cc1nc(CN2C(=O)NC3(CCC3)C2=O)oc1C`, the “% Inhibition” value is given as 3% and the Z score is -0.39.
The like results for `Cc1ccccc1Nc1nc(Nc2ccccc2C)nc(N2CCN(c3ccc(F)cc3)CC2)n1` were, in that order, -15% and 1.98.

These data come from ChEMBL document CHEMBL4888484, “Replenishing the malaria drug discovery pipeline: Screening and hit evaluation of the MMV Hit Generation Library 1 (HGL1) against asexual blood stage Plasmodium falciparum ,using a nano luciferase reporter read-out” (2022).
